Measured values reported in article PMC4336329 (PLoS ONE, 2015).
In all, about 310,000 compounds went through this assay and about 14,000 (4.5%) showed an effect of 50% or more. Effects have a minus sign here. The list shows a part of the results.

target: human ether-à-go-go-related gene (hERG) potassium channel (human, UniProt Q12809); assay: primary screen, population patch clamp on CHO cells stably expressing hERG
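Also: peak tail current of the secondary pulse compared with the same well before compound.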

Sequence of human ether-à-go-go-related gene (hERG) potassium channel (Q12809 whole entry, looked up): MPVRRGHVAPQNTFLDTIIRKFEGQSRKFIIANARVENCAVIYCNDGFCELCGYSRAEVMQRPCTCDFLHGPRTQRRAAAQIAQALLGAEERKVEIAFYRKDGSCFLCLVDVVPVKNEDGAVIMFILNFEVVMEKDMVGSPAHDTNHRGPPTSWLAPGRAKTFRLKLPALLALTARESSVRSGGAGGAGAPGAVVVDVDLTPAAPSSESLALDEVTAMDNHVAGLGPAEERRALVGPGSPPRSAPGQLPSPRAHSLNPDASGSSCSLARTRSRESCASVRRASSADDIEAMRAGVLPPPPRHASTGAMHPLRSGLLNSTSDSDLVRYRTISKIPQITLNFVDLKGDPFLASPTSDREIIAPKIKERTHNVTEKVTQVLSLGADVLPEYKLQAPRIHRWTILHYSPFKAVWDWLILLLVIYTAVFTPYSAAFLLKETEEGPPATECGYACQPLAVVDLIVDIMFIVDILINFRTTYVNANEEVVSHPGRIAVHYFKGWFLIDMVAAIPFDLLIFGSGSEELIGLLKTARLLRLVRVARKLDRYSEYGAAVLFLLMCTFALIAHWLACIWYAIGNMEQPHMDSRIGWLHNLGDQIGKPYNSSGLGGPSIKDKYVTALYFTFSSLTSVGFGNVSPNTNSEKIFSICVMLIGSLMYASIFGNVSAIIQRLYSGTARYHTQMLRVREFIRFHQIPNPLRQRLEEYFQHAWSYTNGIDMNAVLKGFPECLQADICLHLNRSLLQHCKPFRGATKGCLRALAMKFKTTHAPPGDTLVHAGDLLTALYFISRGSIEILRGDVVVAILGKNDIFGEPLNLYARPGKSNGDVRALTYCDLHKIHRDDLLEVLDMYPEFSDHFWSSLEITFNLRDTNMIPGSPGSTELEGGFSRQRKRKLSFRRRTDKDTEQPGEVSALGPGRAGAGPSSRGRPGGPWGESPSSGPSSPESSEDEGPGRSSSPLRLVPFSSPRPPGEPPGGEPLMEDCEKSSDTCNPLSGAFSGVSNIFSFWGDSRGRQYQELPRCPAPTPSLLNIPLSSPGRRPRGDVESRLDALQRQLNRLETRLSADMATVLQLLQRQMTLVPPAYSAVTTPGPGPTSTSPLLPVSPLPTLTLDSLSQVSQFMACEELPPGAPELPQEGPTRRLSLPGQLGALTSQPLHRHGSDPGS

Compound	hERG current change (%, negative = inhibition) at 10uM
COc1ccc(-n2c(SCC(=O)N3CCOCC3)nnc2C(C)N2CCCCC2)cc1 (stereo not drawn)	4.17%
O=C(CNC(=O)c1ccco1)NCC(c1ccco1)N1CCCCC1 (stereo not drawn)	-1.48%
CCN1C(=O)c2cccc3c(S(=O)(=O)N4CCCC4C(=O)O)ccc1c23 (stereo not drawn)	13%
CN(C)/N=C/c1ccc(N2CCOCC2)cc1	-1.35%
CC(=O)N1c2ccc(S(=O)(=O)N3CCCC(C(=O)N4CCCC(C)C4)C3)cc2CC1C (stereo not drawn)	0.545%
Cc1noc(C)c1CCC(=O)N1CCCC(CO)(Cc2ccccc2)C1 (stereo not drawn)	-7.79%
CCOc1ccc(C2Nc3ccccc3NC3=C2C(=O)CC(C)(C)C3)cc1OC (stereo not drawn)	15.6%
Cc1cc(C)n(CCCNC(=O)C2CCC(=O)N(CCc3ccc(Cl)cc3)C2)n1 (stereo not drawn)	-54.7%
Cc1cccc(NC(=O)CSc2cn[nH]n2)c1	19.3%
CC(C)(C)NCC(O)Cn1cc(C=O)c2ccccc21 (stereo not drawn)	3.79%
O=C(CN1CCN(C(=O)C2CCC2)CC1)Nc1ccc(F)cc1	-69.9%
CCCCCCCCN1[C@@H](CC(=O)OCC)c2cc(F)ccc2S1(=O)=O	-9.32%
CC#CC[N+](C)(C)CCCCCC.[Cl-]	7.73%
CCOC(=O)C1=NN(c2ccc(OC)cc2)C(c2ccccc2)CC1=O (stereo not drawn)	-5.25%
COc1cccc(C(C)NC(=O)Nc2cc(Cl)ccc2OC)c1 (stereo not drawn)	17.5%
COC(=O)c1ccc(N=NNc2ccc(C(=O)OC)cc2)cc1	14.9%
CC(C)CCn1c(O)c(N=NC(=O)Cn2ccc(C(F)(F)F)n2)c2ccccc21	-4.34%
CC(C)(C)NC(=O)C(=O)NNC(=O)c1ccccc1Br	6.41%
Cc1cccc2c1N(CCCOc1ccc(C(C)(C)C)cc1)C(=O)C2=O	2.36%
CCOC(=O)c1sc(NC(=O)CCN2CCN(CC)CC2)c(C(=O)OCC)c1C	-88.9%
Cc1ccc(C)c(C(=O)n2cnnc2N)c1	6.51%
Cn1c(CNC(=O)c2ccc3c(c2)OCO3)nnc1SCC(=O)Nc1ccc(F)cc1F	-5.34%
CC(OC(=O)C12CCC(=O)N1c1ccccc1S2)C(=O)Nc1cccc(Cl)c1 (stereo not drawn)	-22.9%

Compound	hERG current change (%, negative = inhibition) at 10uM
Cc1noc(C)c1CSc1nnc2sc3ccccc3n12	7.92%
CCOC(=O)CSc1nnc(CNC(=O)c2ccc(OC)c(OC)c2)n1C	7.35%
COC(=O)CCCCCCCCC(=O)Nc1nc2ccccc2s1	0.783%
Cc1ccc(-c2csc(=S)n2CC(=O)OCC(=O)NC(C)C(C)C)cc1 (stereo not drawn)	3.12%
CCOc1ccccc1-n1c(=O)c2ccccc2c2ccccc2c1=O	-6.99%
Cc1cc(C)nc(SC2c3cccc4cccc(c34)C2NS(=O)(=O)c2ccccc2)n1 (stereo not drawn)	-4.8%
CCN(CC(=O)Nc1ccc2c(c1)OC(F)(F)O2)Cc1nc2ccccc2c(=O)[nH]1	-17.5%
O=C1c2cccc(OCC(=O)N3CCCc4ccccc43)c2CCN1Cc1cccnc1	-20.9%
O=S(=O)(c1ccccc1)c1nc(-c2ccco2)oc1Nc1ccccc1	0.862%
COc1ccc(C)cc1S(=O)(=O)NC1CCCCC1	-8.76%
S=c1nc(-c2ccc(Br)cc2)oc2c1CCCC2	27.4%
O=C(COc1cc2oc(=O)cc(-c3ccccc3)c2cc1Cl)NC(Cc1c[nH]c2ccc(O)cc12)C(=O)O (stereo not drawn)	12.6%
CCSc1nnc(NC(=O)CCN2C(=O)C3CCCCC3C2=O)s1 (stereo not drawn)	-11.9%
CC(=O)Nc1cccc(Oc2ncnc3scc(-c4ccc(C)cc4)c23)c1	15%
COc1ccccc1N/C(N)=N/c1nc(C)cc(C)n1	-32.9%
CCS(=O)(=O)N1CCN(C(=O)CCC2CCCC2)CC1	4.65%
CCOc1ccc(CCNC(=O)CCNS(=O)(=O)c2ccc(Br)cc2)cc1OCC	-6.28%
COc1cccc(CC(=O)Nc2nc(C)cs2)c1	8.16%
Cc1ccc2c(c1)cc1c(=O)[nH]ncn12	2.1%
NC1=NC(=O)/C(=C/c2cccs2)S1	2.73%
CCC(C)(NC(=O)c1ccc2c(c1)OCO2)C(=O)NC1CCCCC1 (stereo not drawn)	-3.56%
COc1ccc(CC(=O)NCC(=O)N/N=C/c2ccc(C)o2)cc1	-5.57%
O=c1[nH]c(C2CCCCC2)nc2ccccc12	-4.46%

Compound	hERG current change (%, negative = inhibition) at 10uM
CCOC(=O)c1[nH]c2ccccc2c1NC(=O)c1nonc1C	-10.3%
CC(C)[NH+]1CCN(C(=O)c2ccc(NC(=O)c3ccc(Br)o3)cc2)CC1.O=C(O)C(F)(F)F	-34.5%
Cn1c(C(=O)NCCCN2CCOCC2)cc2c(=O)n(C)c3ccccc3c21	2.83%
CC1(C)OC(=O)N(c2ccccc2)C12C=Cc1c(ccc3ccccc13)O2 (stereo not drawn)	10%
O=C(O)c1cccc(-n2nnnc2SCc2ccccc2Cl)c1	56.5%
CCN(CC)C(=O)CSc1nnc(CCNC(=O)OC(C)(C)C)o1	4.13%
Cc1cccc(NC(=S)NCc2ccc3[nH]c4c(c3c2)CCCC4)c1	13.4%
COc1ccc(N(CC(=O)Nc2ccc(C)cc2C)S(=O)(=O)c2ccccc2[N+](=O)[O-])c(OC)c1	-24.9%
CC(NC(=O)c1cccc(S(=O)(=O)N2CCc3ccccc3C2)c1)c1ccco1 (stereo not drawn)	-19%
CCC(C)(C)NC(=O)c1cccc(NC(=O)C(C)C)c1	13.2%
O=C(CCn1c(=O)[nH]c2ccccc2c1=O)Nc1ccccc1	16.4%
CCOC(=O)N1CCN(C(=O)c2noc3c2COc2ccccc2-3)CC1	-0.66%
Cc1ccc(NS(=O)(=O)c2ccc(-c3coc(C)n3)cc2)c(Br)c1	2.38%
O=C(NC1CCCCCC1)C1Cc2ccccc2CN1C(=O)c1ccco1 (stereo not drawn)	6.53%
COc1ccc(NC(=O)CSc2nnnn2C)c([N+](=O)[O-])c1	7.1%
CCOC(=O)[C@@]12C(=O)C(=O)N[C@]1(c1ccccc1)C1OCCCC12 (stereo partly drawn)	-0.445%
COc1ccccc1/C=N/Nc1nncc2ccccc12	20.9%
Cc1c(C(=O)OCC2CCCO2)[nH]c2c1C(=O)CC(c1ccco1)C2 (stereo not drawn)	-10.7%
O=C(/C=C/c1ccco1)Nc1ccccc1C(=O)O	16.3%
Cc1cc(=O)[nH]c(Nc2cccc(C(F)(F)F)c2)n1	-8.82%
O=C(N/N=C/c1cc(Cl)cc([N+](=O)[O-])c1O)NC12CC3CC(CC(C3)C1)C2	11.8%
O=C(C1CC2CCC1C2)N1CCN(Cc2ccc3c(c2)OCO3)CC1 (stereo not drawn)	-12.9%
CCCCNC(=S)NNC(=O)c1nn(C)c(C)c1Cl	-0.401%

Compound	hERG current change (%, negative = inhibition) at 10uM
c1ccc(C2c3[nH]c4ccccc4c3CCN2Cc2cccn2-c2ccccn2)nc1 (stereo not drawn)	-70.5%
O=C(C1=C[C@H](c2ccc(C(F)(F)F)cc2)C[C@H](OCc2ccc(CO)cc2)O1)N1CCN(Cc2ccc3c(c2)OCO3)CC1	-19.5%
O=C(Nc1ccc2nc(N3CCOCC3)sc2c1)c1ccccc1	-5.32%
CCCC(=O)Nc1ccc(C(=O)NCC(=O)OCC)cc1	4.47%
O=C(CSCCOc1ccccc1)NCc1ccncc1	-3.26%
CC(c1ccccc1)n1cc(C(=O)NCc2cccnc2)nn1 (stereo not drawn)	5.69%
O=C(CN(C(=O)c1nsc(Cl)c1Cl)c1cccc(F)c1)NC1CCCC1	12.6%
CCOC(=O)c1cnc2ccc(Br)cc2c1NCCCN1CCOCC1	-39%
CCCS(=O)(=O)N1CCCC(C(=O)NCCCN2CCN(c3ccc(F)cc3)CC2)C1 (stereo not drawn)	-59.5%
O=C1CCCN1S(=O)(=O)c1ccc(F)cc1	6.17%
Fc1ccc(CNC(=S)Nc2ccc(Cl)cc2Cl)cc1	2.76%
CCOc1cc(/C=N/NC(=O)CNc2ccc(C)cc2)ccc1OC(=O)c1ccccc1	-9.04%
Cc1ccc(S(=O)(=O)n2c(=O)oc3ccccc32)cc1	0.156%
Cn1c(C(=O)N2CCCC(Nc3ccc(F)cc3)C2)cc2ccccc21 (stereo not drawn)	-10.2%
Cc1cc(C)c(S(=O)(=O)N(CC(=O)N2CCCC2)C2CCCCC2)c(C)c1	-38.4%
Cc1cc(NC(=O)CSc2ccc3nnc(-c4ccccn4)n3n2)no1	-6.72%
Cc1cc(C)n(S(=O)(=O)c2cc(C)c(C)cc2C)n1	-5.5%
O=C(Nc1ccccn1)c1csc2c1CCCC2	9.1%
CC(C)(C)c1nc(N2CCN(C(=O)c3ccco3)CC2)c2nnn(Cc3ccccc3)c2n1	13.1%
COC(=O)C1(Cc2cc(-c3ccc([N+](=O)[O-])cc3)no2)CCN(C(=O)OC(C)(C)C)CC1	-8.82%
O=C(O)CCn1c(SCc2ccccc2)nc2ccccc21	-2.27%
